Data from PubChem BioAssay AID2451 (National Center for Advancing Translational Sciences (NCATS), 2010).
Hit rate of the full screen: of about 290,000 compounds, about 2,100 (0.72%) were called active. The shares of active, inactive and inconclusive entries below differ from those in the screen. Calls come from the whole dose curve; as a rule, active = well fitted inhibition curve with a large enough effect; inconclusive = small, poorly fitted or top-dose-only effect, or effect the other way; inactive = flat fitted curve, though single readings scatter. Potencies beside an inconclusive call are fits to weak or partial responses and may not hold up.

target: Fructose-bisphosphate aldolase (Giardia intestinalis (strain ATCC 50803 / WB clone C6)) (UniProt A8B2U2); test: qHTS Assay for Inhibitors of Fructose-1,6-bisphosphate Aldolase from Giardia Lamblia; details: purified Giardia FBPA; activity, negative = inhibition: at 59.6 µM (top of the series) unless noted; note: nearly all actives have a fitted effect of over 55% in size
UniProt A8B2U2, sequence (A8B2U2 whole entry, looked up): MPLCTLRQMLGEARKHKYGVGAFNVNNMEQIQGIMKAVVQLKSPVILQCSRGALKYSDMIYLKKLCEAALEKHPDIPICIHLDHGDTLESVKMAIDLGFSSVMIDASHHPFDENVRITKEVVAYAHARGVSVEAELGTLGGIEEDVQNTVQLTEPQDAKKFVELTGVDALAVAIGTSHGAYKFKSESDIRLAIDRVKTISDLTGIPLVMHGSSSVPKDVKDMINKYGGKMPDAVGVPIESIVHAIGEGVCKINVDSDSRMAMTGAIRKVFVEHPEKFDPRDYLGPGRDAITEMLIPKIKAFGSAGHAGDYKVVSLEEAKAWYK
Outline: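 Giardia FBPA (40 nM reagent) was preincubated 10 min at RT with compound (up to 57.5 uM final), then substrate plus GAPDH/TPI/NAD/arsenate coupling system with diaphorase/resazurin was added; resorufin fluorescence (525/598 nm) was read after 20 min.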
% is set by controls: 0 for no effect and ±100 for the full control effect; potency is the fitted concentration of half-maximal effect; tags give direction and shape of the fitted curve.

Structure (SMILES) | Potency | activity, negative = inhibition
COc1ccc2c(c1)OCC1=C2CCC2(C)C(=O)CC=C12 (stereo not given) | inconclusive: 11.2 µM [inhibitor, partial curve] | –
COC(=O)[C@@]1(Cc2ccc(OC)cc2)[C@H]2c3cc(C(=O)N(C)C)n(Cc4ccc(C(F)(F)F)nc4)c3C[C@H]2CN1C(=O)c1ccccc1 | – | inactive: -4.2%
Clc1ccc(OCCCN2CCCCC2)c(Br)c1 | inconclusive: 17.7 µM [inhibitor, partial curve] | –
Cc1nc2ccc(Nc3nc4cc(S(=O)(=O)N5CCOCC5)ccc4o3)cc2s1 | inconclusive: 14.1 µM [inhibitor, partial curve] | –
CCOC(=O)c1c(NC(=O)CCCC(=O)O)sc2c1CCC2 | inconclusive: 15.8 µM [activator, single point] | –
COc1ccc(-n2nc3cc(C)c(N)cc3n2)cc1Cl | inconclusive: 14.1 µM [inhibitor, partial curve] | –
CCOc1ccc2[nH]c(=O)c(CN(Cc3nnnn3Cc3ccccc3)CC3CCCO3)cc2c1 (stereo not given) | inconclusive: 6.31 µM [activator, single point] | –
CC[C@]1(O)CC(O[C@@H]2CC(N(C)C)C(O)C(C)O2)c2c(cc3c(c2O)C(=O)c2c(O)cccc2C3=O)C1C(=O)OC (stereo not given in full) | inconclusive: 11.2 µM [inhibitor, partial curve] | –
O=C1c2ccccc2C(=O)C1Cc1cccc2ccccc12 | inconclusive: 19.9 µM [inhibitor, partial curve] | –
COc1cccc(C(C[N+](=O)[O-])c2c(C)[nH]n(-c3ccccc3)c2=O)c1 (stereo not given) | active: 12.6 µM | –
O=C(NCc1ccccc1)c1ccc2nc(-c3ccco3)c(-c3ccco3)nc2c1 | inconclusive: 4.46 µM [inhibitor, full curve] | –
COC(=O)c1nc(-c2ccc3c(n2)C(=O)C(N)=C(OC)C3=O)c(N)c(-c2ccc(OC)c(OC)c2O)c1C | active: 9.98 µM | –
CCOc1ccc(/C=N/OCC(=O)NC(c2ccccc2)c2ccccc2)cc1 | – | inactive: -0.755%
O=C(Nc1ccc(S(=O)(=O)Nc2ncccn2)cc1)c1ccc(F)c(S(=O)(=O)N2CCOCC2)c1 | – | inactive: -7.03%
COc1ccc(CCN(C)Cc2ccncc2)cc1OC | inconclusive: 17.7 µM [inhibitor, single point] | –
COC(=O)c1ccc(-c2noc(CN(Cc3ccncc3)CC3CCCO3)n2)cc1 (stereo not given) | – | inactive: 1.55%
CCCCC(=O)Nc1nnc(S(=O)(=O)N2CCCc3ccccc32)s1 | inconclusive: 17.8 µM [inhibitor, single point] | –
CN(CCC#N)C(=O)Cn1nc(Cc2ccncc2)c2ccccc2c1=O | – | inactive: -3.48%
O=C(NCc1ccccc1)c1ccc(Cl)nc1 | – | inactive: 3.16%
C=C(C)Cc1c(C)c(C#N)c2[nH]c3ccccc3n2c1=O | inconclusive: 28.2 µM [inhibitor, partial curve] | –
S=c1[nH]nc(-c2ccc(Cl)cc2)n1-c1ccc(Cl)cc1 | inconclusive: 15.8 µM [activator, partial curve] | –
Cc1ccc(C(C)C)c(OCCn2ccnc2C)c1 | inconclusive: 28.2 µM [inhibitor, single point] | –
CC(C(N)=O)N1C(=O)c2cccc3cccc1c23 (stereo not given) | inconclusive: 7.06 µM [inhibitor, partial curve] | –

Structure (SMILES) | Potency | activity, negative = inhibition
O=C(CCc1nc2ccccc2c(=O)[nH]1)N1CCN(C/C=C/c2ccccc2)CC1 | – | inactive: -4.11%
O=C(COc1ccccc1)Nc1ncc2c(n1)CCCC2=O | – | inactive: -1.08%
CC(C)CCNC(=O)CC1Nc2c3ccccc3nc(=S)n2C1=O (stereo not given) | inconclusive: 22.3 µM [inhibitor, single point] | –
O=C1/C(=C\c2cccc(O)c2O)SC(=S)N1Cc1ccccc1 | inconclusive: 8.91 µM [inhibitor, partial curve] | –
COc1ccc(CNCCc2ccccc2F)c(OC)c1C | inconclusive: 25.1 µM [inhibitor, partial curve] | –
Cc1ccc(OCC(=O)Nc2ccc(O)c(-c3nc4ccccc4o3)c2)cc1 | – | inactive: 7.53%
O=C(Nc1ccc(NC(=O)C2CC2)nc1)c1cnccn1 | – | inactive: -6.58%
O=C(O)CCN(Cc1ccccc1)S(=O)(=O)c1c(Cl)cccc1Cl | inconclusive: 15.8 µM [activator, single point] | –
CCN(CC)c1nc(N2CCN(C)CC2)nc2ccccc12 | inconclusive: 12.6 µM [inhibitor, partial curve] | –
Cc1cc(N)ccc1-n1c(C)ccc1C | inconclusive: 8.91 µM [inhibitor, partial curve] | –
Cc1nnc(SCC2=C(C(=O)O)N3C(=O)C(NC(=O)Cn4nc(C(F)F)c(Cl)c4C)C3SC2)s1 (stereo not given) | active: 3.97 µM | –
O=C(NNC1=NS(=O)(=O)c2ccccc21)c1cccc([N+](=O)[O-])c1 | inconclusive: 20 µM [inhibitor, single point] | –
CCN1CCN(CCOc2cccc(Cl)c2Cl)CC1 | inconclusive: 6.29 µM [inhibitor, single point] | –
CN1CCN(c2ccc(NC(=O)Cc3ccccc3)cc2)CC1 | – | inactive: 5.89%
COc1ccc(/C=C/C(=O)NC(=S)NNC(=O)c2cccnc2)cc1 | inconclusive: 17.7 µM [activator, partial curve] | –
Cc1ccc(C2SCC(=O)N2Cc2cn3ccsc3n2)o1 (stereo not given) | inconclusive: 25.1 µM [inhibitor, single point] | –
CC(=O)N1c2ccccc2C2(O)N=C(C)SC12 (stereo not given) | inconclusive: 7.06 µM [inhibitor, partial curve] | –
Cc1ccc2c(c1)Sc1c(ccc3ccccc13)N2 | inconclusive: 7.92 µM [inhibitor, partial curve] | –
CCN(CC)CCOC(=O)c1cc(Cl)c(N)cc1OC | inactive | –
Cc1nc2ccc(NS(=O)(=O)c3ccc(F)c(C)c3)cc2[nH]1 | inconclusive: 39.8 µM [inhibitor, single point] | –
COc1ccc(C(c2nnnn2Cc2ccccc2)N2CCN(c3nc4ccccc4s3)CC2)cc1OC (stereo not given) | inconclusive: 17.7 µM [inhibitor, single point] | –
Cn1nnnc1SCC1=C(C(=O)O)N2C(=O)C(NC(=O)C(O)c3ccccc3)C2SC1 (stereo not given) | inconclusive: 15.8 µM [inhibitor, partial curve] | –
